Laboratory results: the supplement of paper PMC12355420
Where a name gives a salt, the structure may show the parent alone. This is one part of the list. Rule as the data show it: active = 0.5 or less and inactive = the rest. Most values come without repeats; read them as rough.

Columns and labels:
Details in all cases: 50 µM; 24 h
[1] = test system: HeLa VPS33A reporter cells; assay: relative cell viability (CellMask signal) vs DMSO (fraction of DMSO); higher = less cytotoxic;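 also: primary screen of an FDA-approved drug library in HeLa reporter cells in 96-well format, CellMask signal normalized to DMSO-treated wells set as 1, under 0.5 deemed highly cytotoxic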
[2] = test system: HeLa VPS33A R498W KI + HA-SDC1-FLAG; assay: relative GAG core protein HA-SDC1 amount per cell number vs DMSO (fraction of DMSO); higher = more SDC1 (GAG core protein);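 also: HA-SDC1 level read out by In-Cell Western staining with an anti-HA antibody against the N-terminal tag, screening FDA-approved library drugs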
[3] = test system: HeLa VPS33A KO + NLuc-VPS33A R498W; assay: relative mutant VPS33A R498W amount (NanoLuc luminescence) vs DMSO (fraction of DMSO); HeLa model of a glycosaminoglycan (GAG) storage disease; KI is knock-in and KO knock-out; SDC1 is syndecan 1; higher = higher mutant VPS33A level;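 also: screen of an FDA-approved drug library, NanoLuc luminescence read after lysing the treated cells, taken as a measure of mutant VPS33A protein stability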

Question: Which results are given for `CC[C@H](C)[C@@H]1NC(=O)[C@H](Cc2ccc(O)cc2)NC(=O)[C@@H](N)CSSC[C@@H](C(=O)N2CCC[C@H]2C(=O)N[C@@H](CC(C)C)C(=O)NCC(N)=O)NC(=O)[C@H](CC(N)=O)NC(=O)[C@H](CCC(N)=O)NC1=O` [Oxytocin]?
Answer: relative cell viability [1]: 0.974; relative GAG core protein HA-SDC1 amount per cell number [2]: inactive: 0.826; relative mutant VPS33A R498W amount [3]: 1.29

Question: For `S=c1[nH]cnc2nc[nH]c12` [Mercaptopurine (6-MP)], which relative cell viability [1] is on record?
Answer: 1.1

Question: And the “relative GAG core protein HA-SDC1 amount per cell number” value [2]?
Answer: inactive: 0.864

Question: What about the “relative mutant VPS33A R498W amount” value [3] of the same compound?
Answer: 6.41

Question: How did the relative cell viability [1] turn out when `CCOC(=O)[C@H](C)C[C@@H](Cc1ccc(-c2ccccc2)cc1)NC(=O)CCC(=O)O` [AHU-377(Sacubitril)] was run?
Answer: 1.34

Question: And the “relative GAG core protein HA-SDC1 amount per cell number” value [2]?
Answer: inactive: 0.87

Question: What about the “relative mutant VPS33A R498W amount” value [3] of the same compound?
Answer: 0.692

Question: With `Cc1nnc(SCC2=C(C(=O)O)N3C(=O)[C@@H](NC(=O)Cn4cnnn4)[C@H]3SC2)s1` [Cefazolin (sodium salt)] as the compound, how does the relative cell viability [1] read?
Answer: 1.01

Question: What about the “relative GAG core protein HA-SDC1 amount per cell number” value [2] of the same compound?
Answer: inactive: 0.841

Question: And the “relative mutant VPS33A R498W amount” value [3]?
Answer: 1.77

Question: How did the relative cell viability [1] turn out when `CCN(CC)CCCC(C)Nc1ccnc2cc(Cl)ccc12` (stereo not drawn) [Chloroquine diphosphate] was run?
Answer: 1.19

Question: What about the “relative GAG core protein HA-SDC1 amount per cell number” value [2] of the same compound?
Answer: inactive: 1.35

Question: And the “relative mutant VPS33A R498W amount” value [3]?
Answer: 0.826

Question: What does the source list for `Cc1cc(-c2ccc(/N=N/c3ccc4c(S(=O)(=O)O)cc(S(=O)(=O)O)c(N)c4c3O)c(C)c2)ccc1/N=N/c1ccc2c(S(=O)(=O)O)cc(S(=O)(=O)O)c(N)c2c1O` [Evans Blue tetrasodium salt]?
Answer: relative cell viability [1]: 1.95; relative GAG core protein HA-SDC1 amount per cell number [2]: inactive: 0.593; relative mutant VPS33A R498W amount [3]: 0.914

Question: How did the relative cell viability [1] turn out when `C[C@@H](CN1CC(=O)NC(=O)C1)N1CC(=O)NC(=O)C1` [Dexrazoxane] was run?
Answer: 1.02

Question: What about the “relative GAG core protein HA-SDC1 amount per cell number” value [2] of the same compound?
Answer: inactive: 0.704

Question: And the “relative mutant VPS33A R498W amount” value [3]?
Answer: 0.984

Question: With `O=C1Cc2cc(CCN3CCN(c4nsc5ccccc45)CC3)c(Cl)cc2N1` [Ziprasidone] as the compound, how does the relative cell viability [1] read?
Answer: 1.19

Question: What about the “relative GAG core protein HA-SDC1 amount per cell number” value [2] of the same compound?
Answer: inactive: 1.48

Question: What about the “relative mutant VPS33A R498W amount” value [3] of the same compound?
Answer: 1.19

Question: `N=C1CCCN1Cc1[nH]c(=O)[nH]c(=O)c1Cl` [Tipiracil hydrochloride] was tested. Which relative cell viability [1] did it give?
Answer: 1.21

Question: What about the “relative GAG core protein HA-SDC1 amount per cell number” value [2] of the same compound?
Answer: inactive: 1.78

Question: What about the “relative mutant VPS33A R498W amount” value [3] of the same compound?
Answer: 1.16

Question: Which results are given for `C[C@]12C=CC(=O)C=C1CC[C@H]1[C@@H]3C[C@@H](O)[C@](O)(C(=O)CO)[C@@]3(C)C[C@H](O)[C@@]12F` [Triamcinolone]?
Answer: relative cell viability [1]: 1.07; relative GAG core protein HA-SDC1 amount per cell number [2]: inactive: 1.01; relative mutant VPS33A R498W amount [3]: 1.08

Question: What does the source list for `C[C@]1(c2nc3c(C(N)=O)cccc3[nH]2)CCCN1` [ABT-888 (Veliparib)]?
Answer: relative cell viability [1]: 1.05; relative GAG core protein HA-SDC1 amount per cell number [2]: inactive: 0.665; relative mutant VPS33A R498W amount [3]: 0.89

Question: With `N#Cc1ccc(Oc2ccc3c(c2)COB3O)cc1` as the compound, how does the relative cell viability [1] read?
Answer: 1.09

Question: And the “relative GAG core protein HA-SDC1 amount per cell number” value [2]?
Answer: inactive: 1.04

Question: What about the “relative mutant VPS33A R498W amount” value [3] of the same compound?
Answer: 1.01

Question: Which results are given for `Cc1ccc(F)c(NC(=O)Nc2ccc(-c3cccc4[nH]nc(N)c34)cc2)c1` [Linifanib (ABT-869)]?
Answer: relative cell viability [1]: 1.14; relative GAG core protein HA-SDC1 amount per cell number [2]: inactive: 0.973; relative mutant VPS33A R498W amount [3]: 5.82

Question: With `OC(CCN1CCCCC1)(c1ccccc1)C1CC2C=CC1C2` (stereo not drawn) [Biperiden HCl] as the compound, how does the relative cell viability [1] read?
Answer: 0.726

Question: What about the “relative GAG core protein HA-SDC1 amount per cell number” value [2] of the same compound?
Answer: inactive: 0.514

Question: What about the “relative mutant VPS33A R498W amount” value [3] of the same compound?
Answer: 0.93

Question: How did the relative cell viability [1] turn out when `CC1(C)S[C@@H]2[C@H](NC(=O)C(C(=O)O)c3ccccc3)C(=O)N2[C@H]1C(=O)O` (stereo partly drawn) [Carbenicillin, Disodium Salt] was run?
Answer: 1.38

Question: And the “relative GAG core protein HA-SDC1 amount per cell number” value [2]?
Answer: inactive: 1.27

Question: And the “relative mutant VPS33A R498W amount” value [3]?
Answer: 0.996

Question: With `CCc1cc(/C(C)=N/OCc2ccc(C3CCCCC3)c(C(F)(F)F)c2)ccc1CN1CC(C(=O)O)C1` [BAF312 (Siponimod)] as the compound, how does the relative cell viability [1] read?
Answer: 0.977

Question: What about the “relative GAG core protein HA-SDC1 amount per cell number” value [2] of the same compound?
Answer: inactive: 0.739

Question: And the “relative mutant VPS33A R498W amount” value [3]?
Answer: 1.54

Question: With `COc1c(C)c2c(c(O)c1C/C=C(\C)CCC(=O)OCCN1CCOCC1)C(=O)OC2` [Mycophenolate Mofetil] as the compound, how does the relative cell viability [1] read?
Answer: 0.971

Question: And the “relative GAG core protein HA-SDC1 amount per cell number” value [2]?
Answer: inactive: 1.16

Question: What about the “relative mutant VPS33A R498W amount” value [3] of the same compound?
Answer: 1.56

Question: Which relative cell viability [1] does the source give for `CC(C)(Oc1ccc(CCNC(=O)c2ccc(Cl)cc2)cc1)C(=O)O` [Bezafibrate] here?
Answer: 1.14

Question: What about the “relative GAG core protein HA-SDC1 amount per cell number” value [2] of the same compound?
Answer: inactive: 1.19

Question: What about the “relative mutant VPS33A R498W amount” value [3] of the same compound?
Answer: 1.15

Question: For `CCCCCCCCCCCCCCCCO` [1-Hexadecanol], which relative cell viability [1] is on record?
Answer: 1.07

Question: What about the “relative GAG core protein HA-SDC1 amount per cell number” value [2] of the same compound?
Answer: inactive: 1.05

Question: And the “relative mutant VPS33A R498W amount” value [3]?
Answer: 1.22

Question: What does the source list for `O.O.O=P([O-])([O-])O.[Na+].[Na+]` [Sodium phosphate dibasic]?
Answer: relative cell viability [1]: 1.24; relative GAG core protein HA-SDC1 amount per cell number [2]: inactive: 0.926; relative mutant VPS33A R498W amount [3]: 1.01

Question: For `CCCc1nc(C(C)(C)O)c(C(=O)OCc2oc(=O)oc2C)n1Cc1ccc(-c2ccccc2-c2nnn[nH]2)cc1` [Olmesartan medoxomil], which relative cell viability [1] is on record?
Answer: 1.08

Question: What about the “relative GAG core protein HA-SDC1 amount per cell number” value [2] of the same compound?
Answer: inactive: 1.16

Question: And the “relative mutant VPS33A R498W amount” value [3]?
Answer: 1.06

Question: For `Cc1ccc(C)c(OCCCC(C)(C)C(=O)O)c1` [Gemfibrozil], which relative cell viability [1] is on record?
Answer: 1.03

Question: And the “relative GAG core protein HA-SDC1 amount per cell number” value [2]?
Answer: inactive: 1.03

Question: What about the “relative mutant VPS33A R498W amount” value [3] of the same compound?
Answer: 0.981

Question: What does the source list for `CC(=O)N(O)CCCCCNC(=O)CCC(=O)N(O)CCCCCNC(=O)CCC(=O)N(O)CCCCCN` [Deferoxamine mesylate]?
Answer: relative cell viability [1]: 1.17; relative GAG core protein HA-SDC1 amount per cell number [2]: inactive: 0.859; relative mutant VPS33A R498W amount [3]: 2.09

Question: `CC(C)n1c(/C=C/C(O)CC(O)CC(=O)O)c(-c2ccc(F)cc2)c2ccccc21` (stereo not drawn) [Fluvastatin Sodium] was tested. Which relative cell viability [1] did it give?
Answer: 0.679

Question: What about the “relative GAG core protein HA-SDC1 amount per cell number” value [2] of the same compound?
Answer: inactive: 0.739

Question: And the “relative mutant VPS33A R498W amount” value [3]?
Answer: 2.48

Question: How did the relative cell viability [1] turn out when `CCNC(=O)[C@@H]1CCCN1C(=O)[C@H](CCCNC(=N)N)NC(=O)[C@H](CC(C)C)NC(=O)[C@@H](CC(C)C)NC(=O)[C@H](Cc1ccc(O)cc1)NC(=O)[C@H](CO)NC(=O)[C@H](Cc1c[nH]c2ccccc12)NC(=O)[C@H](Cc1c[nH]cn1)NC(=O)[C@@H]1CCC(=O)N1` [Leuprolide Acetate] was run?
Answer: 1.01

Question: What about the “relative GAG core protein HA-SDC1 amount per cell number” value [2] of the same compound?
Answer: inactive: 1.17

Question: And the “relative mutant VPS33A R498W amount” value [3]?
Answer: 1.05

Question: How did the relative cell viability [1] turn out when `COC(=O)c1ccccc1O` [Methyl salicylate] was run?
Answer: 0.966

Question: What about the “relative GAG core protein HA-SDC1 amount per cell number” value [2] of the same compound?
Answer: inactive: 0.887

Question: What about the “relative mutant VPS33A R498W amount” value [3] of the same compound?
Answer: 1.41
